The campaign covered roughly 16,000 compounds. About 120 (0.75%) were called active. About 4% were inconclusive and are not listed. Calls come from the whole dose curve; as a rule, active = well fitted inhibition curve with a large enough effect; inconclusive = small, poorly fitted or top-dose-only effect; inactive = no such curve, though single readings can be large or run the other way. This is one part of the list.
Potency is the fitted concentration of half-maximal effect.

This assay deals with Rap guanine nucleotide exchange factor 3 (Homo sapiens) (UniProt O95398). As to the kind of experiment: Validation qHTS for antagonist of cAMP-regulated guanine nucleotide exchange factor 3 (EPAC1). Note: nearly all actives have a fitted effect of over 75% in size. Conditions: EPAC1 Rap1B-BODIPY-GDP exchange, fluorescence; series mostly up to 150 µM; activity change, negative = inhibition: at the top concentration. An excerpt: Assay Provider (PI): Xiaodong Cheng Ph.D.
Sequence of UniProt O95398 (O95398 whole entry, looked up): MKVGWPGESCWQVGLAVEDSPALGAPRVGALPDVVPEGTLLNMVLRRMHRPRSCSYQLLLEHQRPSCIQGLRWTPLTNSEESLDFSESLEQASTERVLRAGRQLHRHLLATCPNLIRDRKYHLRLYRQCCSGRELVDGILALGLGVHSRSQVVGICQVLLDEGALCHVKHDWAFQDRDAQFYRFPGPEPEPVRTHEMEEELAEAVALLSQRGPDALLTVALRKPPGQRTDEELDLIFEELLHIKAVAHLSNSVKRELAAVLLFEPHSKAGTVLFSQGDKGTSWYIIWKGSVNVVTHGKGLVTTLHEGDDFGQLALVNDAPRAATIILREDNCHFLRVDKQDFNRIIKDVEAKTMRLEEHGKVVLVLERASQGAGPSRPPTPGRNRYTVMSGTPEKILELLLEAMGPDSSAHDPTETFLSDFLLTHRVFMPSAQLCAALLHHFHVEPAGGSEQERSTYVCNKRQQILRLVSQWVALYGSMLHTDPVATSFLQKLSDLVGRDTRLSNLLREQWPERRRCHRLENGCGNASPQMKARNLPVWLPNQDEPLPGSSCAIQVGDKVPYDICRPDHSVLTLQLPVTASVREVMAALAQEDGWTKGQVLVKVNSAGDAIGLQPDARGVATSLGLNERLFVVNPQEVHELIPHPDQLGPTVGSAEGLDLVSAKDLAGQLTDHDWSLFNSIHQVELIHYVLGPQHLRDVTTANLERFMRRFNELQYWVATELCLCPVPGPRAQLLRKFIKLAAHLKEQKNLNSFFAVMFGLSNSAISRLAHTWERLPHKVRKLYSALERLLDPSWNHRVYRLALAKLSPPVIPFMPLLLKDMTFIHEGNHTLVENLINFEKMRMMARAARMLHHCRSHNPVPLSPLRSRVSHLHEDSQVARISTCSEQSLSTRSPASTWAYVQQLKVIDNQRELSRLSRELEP
The University of Texas Medical Branch, […], TX
In multi-cellular eukaryotic organisms, the effects of cAMP are transduced by two ubiquitously-expressed intracellular cAMP receptors, the classic protein kinase A/cAMP-dependent protein kinase (PKA/cAPK) and the more recently discovered exchange protein directly activated by cAMP/cAMP-regulated guanine nucleotide exchange factor (EPAC/cAMP-GEF). Both PKA and EPAC are ubiquitously expressed in all tissues, and an increase in intracellular cAMP levels will lead to the activation of both PKA and EPAC. Therefore, careful dissections of the individual role and relative contribution of EPAC and PKA within the overall cAMP signaling in various model systems are critical for further elucidating the mechanism of cAMP signaling. To date no EPAC-specific antagonists and agonist, as well as isoform-specific agonists have been reported, and developing EPAC-specific pharmacological probes to determine the physiological functions that EPAC play in the overall cAMP-mediated signaling remains a major challenge within the research field. Furthermore, identified regulators of EPAC may lead to new mechanism-based therapeutic strategies specifically targeting the EPAC / cAMP-signaling components as EPAC has been implicated to play important roles in major human pathological conditions such as diabetes, heart disease, and cancer.
This qHTS will be used to screen the Molecular Libraries Small Molecule Repository (MLSMR) as a concentration-titration series using the NCGC unique quantitative screening (qHTS) platform to find activators for EPAC1. In addition, this assay will also be used as a counterscreen for the EPAC2 qHTS. This fluorescent based assay is developed and validated for EPAC1 that measures exchange using EPAC effector Rap1 complex with BODIPY-GDP, a GDP analog with a tethered fluorophores. Activators are identified by monitoring the change in fluorescence signal as the exchanged free BODIPY-GDP has a reduced fluorescence compared to Rap1-bound BODIPY-GDP. Increase in signal (activation) is the desired outcome for the EPAC1 agonist while no activity in this assay is desired for the EPAC2 agonist counterscreen.
[1] de Rooij, J., Zwartkruis, F. J., Verheijen, M. H., Cool, R. H., Nijman, S. M., Wittinghofer, A., and Bos, J.L. (1998) Nature 396, 474-477.
Briefly, three uL of reagents (100 nM EPAC1, 250 nM RAP1B-BODIPY-GDP, 50 uM GDP) were dispensed into a 1536-well Greiner black solid-bottom medium binding assay plate. Controls and test compounds (23 nL) were transferred to the plate via a Kalypsys pin tool equipped with a 1536-pin array. The plates were centrifuged at 1,000 rpm for 15 seconds followed by 5 minute incubation at room temperature. The assay plates were read at 5 minute intervals for 30 minutes in the ViewLux plate reader using 480nm excitation and 540nm emission filters. The results were normalized to the […] positive control ATA and DMSO.
On to `CNc1cc(-c2ccccc2C)ncn1`, for which the “activity change, negative = inhibition” value is inactive: 13%.

As for `O=C(O)COc1cccc(-c2ocnc2-c2nc(-c3ccccc3)c(-c3ccccc3)o2)c1`, the “activity change, negative = inhibition” value is inactive: -13.6%.

In the case of `CCN1\C(=C/C=C/C=C/c2sc3ccccc3[n+]2CC)Sc2ccccc21`, the “activity change, negative = inhibition” value was inactive: -20.6%.

On to `CNc1ccnc(-c2ccccc2CN(C)C)n1`, for which the “activity change, negative = inhibition” value was inactive: 0.0893%.

In the case of `[O]=[Bi][O][Bi]=[O]`, the “activity change, negative = inhibition” value was inactive: -8.6%.

As for `Cc1cnc(-n2ncc(C(=O)NCC(C)(C)N3CCOCC3)c2C)nc1-c1cccs1`, the “activity change, negative = inhibition” value was inactive: 12.4%.

Turning to `S=C=Nc1ccc(N=C=S)cc1`, the “activity change, negative = inhibition” value is inactive: 17.2%.

`O=C(O)COc1nn(Cc2ccccc2)c2ccccc12`: the “activity change, negative = inhibition” value was inactive: 20.3%.

With `COc1cccc(Nc2ncc3nc(-c4ccc(Cl)cc4)c(=O)n(C4CC4)c3n2)c1`, the “activity change, negative = inhibition” value is inactive: 18.1%.

As to `CO[C@]12CC(COC(=O)c3cncc(Br)c3)CN(C)[C@@H]1Cc1cn(C)c3cccc2c13` (stereo partly specified), the “activity change, negative = inhibition” value is inactive: 6%.

Turning to `CN1CCC2(CCN3CCc4c(oc5ccccc45)C3C2)N(C)C1=O` (stereo unspecified), the “activity change, negative = inhibition” value is inactive: 2.96% [at 75.8 µM].

On to `Cc1noc(C)c1-c1nc(NCCN2CCOCC2)c2ccccc2n1`, for which the “activity change, negative = inhibition” value is inactive: 15.1%.

Consider `O=c1cc(-c2ccccc2O)oc2cc(O)cc(O)c12`, for which the “activity change, negative = inhibition” value is inactive: 15.4%.

Consider `O=C(NCCN1CCOCC1)c1cnn(-c2nccc(-c3cc4ccccc4o3)n2)c1C1CC1`, for which the “activity change, negative = inhibition” value is inactive: 14.1%.

For `NC(=O)c1ccc(-c2nc(-c3ccc4c(c3)OCO4)c(-c3ccccn3)[nH]2)cc1`, the “activity change, negative = inhibition” value was inactive: 6.09%.

Take `COc1ccc(/C=C/C(=O)c2cccs2)cc1OC`: the “activity change, negative = inhibition” value is inactive: 10.7%.

As to `COC(=O)[C@@H]1CCCN1Cc1ccc2c(c1)CN(Cc1ccc(OC)c(C)c1)CCO2`, the “activity change, negative = inhibition” value is inactive: 6.61%.

With `C[N+]12CCC(CC1)C(OC(=O)C(O)(c1ccccc1)c1ccccc1)C2` (stereo unspecified), the activity change, negative = inhibition entry is “inactive”.

With `CN(C)C(=O)c1ccc(-c2cncnc2N2CCNCC2)cc1`, the “activity change, negative = inhibition” value was inactive: -7.19%.

In the case of `O=C(c1cc(C(F)(F)F)cc(C(F)(F)F)c1)N1CCC2(CC1)CN(c1ccncc1)C2`, the “activity change, negative = inhibition” value is inactive: 12.6%.

Consider `Nc1ncnc2c1ncn2[C@@H]1O[C@H](COP(=O)(O)O)[C@@H](O)[C@H]1O`, for which the “activity change, negative = inhibition” value is inactive: -2.32%.

Consider `O=C1CCN(Cc2ccccc2)CCN1[C@H](COc1ccccc1)Cc1ccccc1`, for which the “activity change, negative = inhibition” value is inactive: -6.82%.

For the compound `Cc1ccccc1-c1nc(N2CCNCC2)c2ccccc2n1`, the “activity change, negative = inhibition” value is inactive: 5.51%.

With `Cc1cc(C)cc(CN2CCc3nnc(C(NS(C)(=O)=O)C(C)C)n3CC2)c1` (stereo unspecified), the “activity change, negative = inhibition” value is inactive: 9.36%.

As to `COC(=O)[C@@H]1CCCN1C(=O)c1c(OC)cc(=O)n2c1CCN(Cc1ccc3cccnc3c1)CC2`, the “activity change, negative = inhibition” value is inactive: 10.1%.

Take `NCCc1ccn[nH]1`: the “activity change, negative = inhibition” value was inactive: 14.7% [at 75.8 µM].

As for `COc1ccc(-c2cn(Cc3ccc(C(=O)c4ccccc4)cc3)nn2)cc1`, the “activity change, negative = inhibition” value was inactive: -6.67%.

Regarding `OC(CN1CCCCC1)c1cc(-c2ccccc2)on1` (stereo unspecified), the “activity change, negative = inhibition” value is inactive: 11.2%.

`NC(=O)c1ncn([C@@H]2O[C@H](CO)[C@@H](O)[C@H]2O)c1N`: the “activity change, negative = inhibition” value is inactive: 12.4%.

For the compound `CNc1nc(-c2ccoc2)nc2ccccc12`, the “activity change, negative = inhibition” value was inactive: 9.86%.

For the compound `C=C1CCC2C(CC2(C)C)C(=C)CC/C1=N/O` (stereo unspecified), the “activity change, negative = inhibition” value is inactive: 6.1%.

On to `COc1cc2c(cc1OC)[C@@H](c1ccccc1)CN(C)CC2`, for which the “activity change, negative = inhibition” value was inactive: 15%.

Consider `CC1=C(/C=C/C(C)=C/C=C/C(C)=C/C(=O)Nc2ccc(O)cc2)C(C)(C)CCC1`, for which the activity change, negative = inhibition entry is “inactive”.

Regarding `CC(C)CN1CCC2(CC1)CCN(S(=O)(=O)c1ccccc1)CC2`, the “activity change, negative = inhibition” value is inactive: 19.7%.

In the case of `CC(c1cc2ccccc2s1)N(O)C(N)=O` (stereo unspecified), the “activity change, negative = inhibition” value was inactive: -3.84%.

Regarding `COc1ccccc1CN1CCC2(CC1)CCN(C(=O)c1cc(C(F)(F)F)cc(C(F)(F)F)c1)CC2`, the “activity change, negative = inhibition” value was inactive: 5.68%.

Consider `COc1ccc(-n2c(=O)cnc3cnc(OC)nc32)cc1`, for which the “activity change, negative = inhibition” value is inactive: 11%.

As to `CC(=O)N1CCC[C@H]1C(=O)N1CCc2c(cnc(C)c2CNC(=O)/C=C/c2cccs2)C1`, the “activity change, negative = inhibition” value is inactive: -16.5%.

Consider `COc1cccc(C(=O)NCC2Cc3cccc(-c4ncccn4)c3O2)c1OC` (stereo unspecified), for which the “activity change, negative = inhibition” value is inactive: 12%.

For `CC[N+](C)(CC)CC(=O)Nc1c(C)cccc1C`, the “activity change, negative = inhibition” value is inactive: 16.4%.

For `Cc1cccc(C)c1NC(=O)NC1=CCCN1C`, the “activity change, negative = inhibition” value was inactive: 10%.

Regarding `NS(=O)(=O)c1ccc(NC(=O)CCC(=O)O)cc1`, the “activity change, negative = inhibition” value is inactive: 7.29%.

As for `CCn1c(C)nc2cc(NS(=O)(=O)c3ccccc3)cc(C(=O)N3C[C@@H](C)O[C@@H](C)C3)c21`, the “activity change, negative = inhibition” value was inactive: 6.21%.

For the compound `COc1cccc(-c2ccc3ncnc(NC4CCNCC4)c3c2)c1`, the “activity change, negative = inhibition” value was inactive: 18.1%.

Take `O=C(O)c1cc(O)c2c(c1)[C@H]([C@H]1c3cc(C(=O)O)cc(O)c3C(=O)c3c(O[C@@H]4O[C@H](CO)[C@@H](O)[C@H](O)[C@H]4O)cccc31)c1cccc(O[C@@H]3O[C@H](CO)[C@@H](O)[C@H](O)[C@H]3O)c1C2=O`: the Potency is active: 100 µM.

Consider `Cn1c(SCC2CCCO2)nnc1C1CCN(Cc2ccco2)CC1` (stereo unspecified), for which the “activity change, negative = inhibition” value was inactive: 12.5%.

Regarding `COc1ccc(/C=C/C(=O)N2CCc3c(cnc(C)c3CNS(=O)(=O)c3cccs3)C2)cc1`, the “activity change, negative = inhibition” value is inactive: -0.679%.

Turning to `Cc1nc2cncnc2n(Cc2ccccc2)c1=O`, the “activity change, negative = inhibition” value was inactive: 1.36%.

Take `CC(=O)Oc1cc(C(C)C)c(OCCN(C)C)cc1C`: the activity change, negative = inhibition result was “inactive”.

On to `COCC(=O)N1CCC2(CCCN(C(=O)Nc3cccc(C#N)c3)C2)CC1`, for which the “activity change, negative = inhibition” value is inactive: 10.6%.

Regarding `O=C(O)[C@H]1C(=CCO)O[C@H]2CC(=O)N12`, the “activity change, negative = inhibition” value is inactive: 20.4%.
